Experimental data: the supplement of paper PMC10369915
The other results are listed elsewhere or left out. No stated cut-off is given here; in the data, active = 3.2 or more and inactive = the rest. Most of these values are background signal.

What was measured:
Assay in all cases: enrichment score (SH2-bound / input frequency) (ratio); bacterial display of known human phosphotyrosine sites (pTyr-Var adds point mutants) read by sequencing; higher = stronger binding; tyrosines were phosphorylated by kinases first
Settings in all cases: peptide library: pTyr-Var
SHP2 C-SH2 domain E139D = molecular target: SHP2 C-SH2 domain E139D
[1] = molecular target: SHP2 C-SH2 domain wild-type
SHP2 N-SH2 domain L43F = molecular target: SHP2 N-SH2 domain L43F
SHP2 N-SH2 domain T42A = molecular target: SHP2 N-SH2 domain T42A
SHP2 N-SH2 domain T52S = molecular target: SHP2 N-SH2 domain T52S
[2] = molecular target: SHP2 N-SH2 domain wild-type
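Further: displayed peptides selected on beads carrying the immobilized SH2 domain, with library peptides lacking any tyrosine serving as negative controls.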

| Binder | enrichment score (SHP2 C-SH2 domain E139D) | enrichment score [1] | enrichment score (SHP2 N-SH2 domain L43F) | enrichment score (SHP2 N-SH2 domain T42A) | enrichment score (SHP2 N-SH2 domain T52S) | enrichment score [2] |
| --- | --- | --- | --- | --- | --- | --- |
| KLPDAYERFIL [G6PD_Y437_L440F] | inactive: 1.01 | inactive: 1.03 | inactive: 0.878 | inactive: 0.98 | inactive: 0.903 | inactive: 1.07 |
| KLPDAYEPLIL [G6PD_Y437_R439P] | inactive: 0.849 | inactive: 0.821 | inactive: 0.695 | inactive: 0.666 | inactive: 0.706 | inactive: 0.987 |
| GILDVYIFLGP [GAA_Y340] | inactive: 1.11 | inactive: 1.34 | inactive: 1.14 | inactive: 1.05 | inactive: 0.929 | inactive: 1.3 |
| EILDVYIFLGP [GAA_Y340_G335E] | inactive: 0.965 | inactive: 1.03 | inactive: 0.909 | inactive: 1.09 | inactive: 0.759 | inactive: 1.13 |
| RILDVYIFLGP [GAA_Y340_G335R] | inactive: 0.841 | inactive: 1.18 | inactive: 0.825 | inactive: 0.921 | inactive: 0.879 | inactive: 0.82 |
| WNDPDYMDSRR [GAA_Y407_L405P] | inactive: 0.824 | inactive: 1.05 | inactive: 1.02 | inactive: 0.832 | inactive: 1 | inactive: 1.1 |
| WNDLDYVDSRR [GAA_Y407_M408V] | inactive: 0.892 | inactive: 0.79 | inactive: 0.761 | inactive: 0.837 | inactive: 0.718 | inactive: 0.702 |
| HLPAGYIIPLQ [GAA_Y822_R819P] | inactive: 1.93 | active: 5.1 | active: 5.75 | active: 3.4 | active: 6.78 | inactive: 1.9 |
| HVSISYDIPLT [GAB1_Y307_P311L] | inactive: 1.18 | inactive: 1.27 | inactive: 1.31 | inactive: 2.06 | inactive: 1.1 | inactive: 1.23 |
| DTDSSYCIPIA [GAB1_Y373_T377I] | inactive: 0.864 | inactive: 0.865 | inactive: 0.986 | inactive: 0.621 | inactive: 0.772 | inactive: 1.01 |
| EFENSYIFDIN [GAB1_Y83] | inactive: 0.665 | inactive: 0.636 | inactive: 0.537 | inactive: 0.482 | inactive: 0.647 | inactive: 0.585 |
| EFENSCIFDIN [GAB1_Y83_Y83C] | inactive: 0.789 | inactive: 0.77 | inactive: 0.676 | inactive: 0.878 | inactive: 0.74 | inactive: 0.655 |
| PTATSYNPNLA [GABRA1_Y375_T376N] | inactive: 0.393 | inactive: 0.502 | inactive: 0.717 | inactive: 0.449 | inactive: 0.623 | inactive: 0.471 |
| KAIDMYLMGCF [GABRB2_Y308] | inactive: 0.648 | inactive: 0.786 | inactive: 0.801 | inactive: 0.602 | inactive: 0.676 | inactive: 0.827 |
| KVIDMYLMGCF [GABRB2_Y308_A304V] | inactive: 1.18 | inactive: 1.81 | inactive: 1.41 | inactive: 1.11 | inactive: 1.33 | inactive: 1.78 |
| GRSTYYWPSPR [GAGE12J_Y10_R13S] | inactive: 0.548 | inactive: 0.532 | inactive: 0.526 | inactive: 0.488 | inactive: 0.587 | inactive: 0.622 |
| GRSTCYWPRPR [GAGE12J_Y10_Y9C] | inactive: 0.239 | inactive: 0.205 | inactive: 0.183 | inactive: 0.227 | inactive: 0.231 | inactive: 0.238 |
| RGRSTCYWPRP [GAGE12J_Y9_Y9C] | inactive: 0.242 | inactive: 0.297 | inactive: 0.276 | inactive: 0.234 | inactive: 0.251 | inactive: 0.479 |
| TGVRDYIHVVD [GALE_Y241] | inactive: 1.03 | inactive: 0.891 | inactive: 0.918 | inactive: 0.688 | inactive: 0.737 | inactive: 0.936 |

| Binder | enrichment score (SHP2 C-SH2 domain E139D) | enrichment score [1] | enrichment score (SHP2 N-SH2 domain L43F) | enrichment score (SHP2 N-SH2 domain T42A) | enrichment score (SHP2 N-SH2 domain T52S) | enrichment score [2] |
| --- | --- | --- | --- | --- | --- | --- |
| FASAEYQEALS [GALNS_Y461] | inactive: 0.664 | inactive: 0.516 | inactive: 0.755 | inactive: 0.604 | inactive: 0.687 | inactive: 0.584 |
| FASVEYQEALS [GALNS_Y461_A459V] | inactive: 0.699 | inactive: 0.711 | inactive: 0.708 | inactive: 0.749 | inactive: 0.745 | inactive: 0.691 |
| KPGLKYVTYGN [GALNTL5_Y404] | inactive: 1.42 | inactive: 1.19 | inactive: 1.88 | inactive: 1.76 | inactive: 1.74 | inactive: 1.26 |
| KPSLKYVTFGN [GALNTL5_Y404_G401S_YF] | inactive: 0.797 | inactive: 0.594 | inactive: 1.25 | inactive: 1.41 | inactive: 1.34 | inactive: 0.772 |
| KPGLKYVTFGN [GALNTL5_Y404_YF] | inactive: 1.5 | inactive: 1.55 | inactive: 2.78 | inactive: 2.94 | inactive: 3.06 | inactive: 1.76 |
| RFMVGYEMLAQ [GALT_Y339_K334R] | inactive: 1.34 | inactive: 1.13 | inactive: 1.53 | inactive: 1.4 | inactive: 1.43 | inactive: 1.27 |
| KFMVGYEMIAQ [GALT_Y339_L342I] | inactive: 1.52 | inactive: 1.39 | inactive: 1.32 | inactive: 1.54 | inactive: 1.79 | inactive: 1.22 |
| KFMVGYEMLAK [GALT_Y339_Q344K] | inactive: 1.38 | inactive: 1.19 | inactive: 1.24 | inactive: 1.28 | inactive: 1.24 | inactive: 1.21 |
| PADCRYFTFPQ [GAMT_Y222_A224T_YF] | inactive: 0.88 | inactive: 0.969 | inactive: 0.825 | inactive: 1.09 | inactive: 1.13 | inactive: 1.02 |
| PADCRYFAFPQ [GAMT_Y222_YF] | inactive: 1.16 | inactive: 1.21 | inactive: 0.993 | inactive: 0.993 | inactive: 0.931 | inactive: 1.11 |
| ADCRFYTFPQM [GAMT_Y223_A224T_YF] | inactive: 0.79 | inactive: 1.44 | inactive: 1.48 | inactive: 0.877 | inactive: 0.936 | inactive: 1.36 |
| MKKKTYAMGGG [GAN_Y424_I423T] | inactive: 0.794 | inactive: 0.627 | inactive: 0.888 | inactive: 0.846 | inactive: 1.11 | inactive: 0.6 |
| VAMELYVFRGV [GAN_Y471_G474R] | inactive: 1.35 | inactive: 1.38 | inactive: 1.06 | inactive: 1.19 | inactive: 1.05 | inactive: 1.2 |
| DVFRQYASLRG [GANAB_Y379_T383R] | inactive: 1.61 | active: 4.07 | inactive: 0.426 | inactive: 0.971 | inactive: 0.551 | inactive: 0.591 |
| LFSLGYHQSRW [GANAB_Y396] | inactive: 1.5 | inactive: 1.9 | inactive: 2.24 | inactive: 1.57 | inactive: 1.74 | inactive: 1.73 |
| SKKSTYRALLD [GANC_Y43_Q44R] | inactive: 0.699 | inactive: 0.603 | inactive: 0.593 | inactive: 0.582 | inactive: 0.535 | inactive: 0.586 |
| EKPAKYDDIKK [GAPDH_Y255] | inactive: 0.778 | inactive: 0.685 | inactive: 0.682 | inactive: 0.734 | inactive: 0.536 | inactive: 0.88 |
| FIGRIYLYLTK [GARS1_Y414] | inactive: 1.32 | inactive: 1.33 | inactive: 1.02 | inactive: 1.05 | inactive: 1.28 | inactive: 1.1 |
